# This is one part of the list.
# B1: PhoQ; a variant is named by its letters at X, in order, P23837 (parent)
# chain: MKKLLRLFFPLSLRVRFLLATAAVVLVLSLAYGMVALIGYSVSFDKTTFRLLRGESNLFYTLAKWENNKLHVELPENIDKQSPTMTLIYDENGQLLWAQRDVPWLMKMIQPDWLKSNGFHEIEADVNDTSLLLSGDHSIQQQLQEVREDDDDAEMTHSVAVNVYPATSRMPKLTIVVVDTIPVELKSSYMVWSWFIYVLSANLLLVIPLLWVAAWWSLRPIEALAKEVRELEEHNRELLNPATTRELTSLVRNLNRLLKSERERYDKYRTTLTDLTHSLKTPLXXLQXXLRSLRSEKMSVSDAEPVMLEQISRISQQIGYYLHRASMRGGTLLSRELHPVAPLLDNLTSALNKVYQRKGVNISLDISPEISFVGEQNDFVEVMGNVLDNACKYCLEFVEISARQTDEHLYIVVEDDGPGIPLSKREVIFDRGQRVDTLRPGQGVGLAVAREITEQYEGKIVAGESMLGGARMEVIFGRQHSAPKDE
# Variants of: B1
# Assay: enrichment ratio after two sorts for PhoP signalling (ratio (wild type AVST 3.29)); higher = more functional
# Details: with PhoP (E. coli)
row,Variant,enrichment ratio
1,IEGV,≤ 0.25
2,FRII,≤ 0.25
3,PRQP,≤ 0.25
4,HEIP,≤ 0.25
5,LYNQ,≤ 0.25
6,DRTN,≤ 0.25
7,HNEY,≤ 0.25
8,APLK,≤ 0.25
9,WFLT,≤ 0.25
10,AVAY,10.3
11,SWDC,≤ 0.25
12,VHSA,≤ 0.25
13,KARQ,≤ 0.25
14,NGLG,≤ 0.25
15,PYCN,≤ 0.25
16,HGRP,≤ 0.25
17,YCAI,0.312
18,PPVP,≤ 0.25
19,SRSE,≤ 0.25
20,MQNG,≤ 0.25
21,EEHR,≤ 0.25
22,CSTC,≤ 0.25
23,LSPN,≤ 0.25
24,DWHS,≤ 0.25
25,FYAP,≤ 0.25
26,GWQS,≤ 0.25

row,Variant,enrichment ratio
1,QPTK,≤ 0.25
2,DRMT,≤ 0.25
3,FLLF,≤ 0.25
4,VCRL,≤ 0.25
5,EKPA,≤ 0.25
6,SVHN,≤ 0.25
7,AKHF,≤ 0.25
8,ERDG,≤ 0.25
9,HPHL,≤ 0.25
10,EADF,≤ 0.25
11,LICF,≤ 0.25
12,MNQY,≤ 0.25
13,APYL,≤ 0.25
14,FKMN,≤ 0.25
15,QYRQ,≤ 0.25
16,SKET,≤ 0.25
17,WGFN,≤ 0.25
18,QTCS,≤ 0.25
19,GYYH,≤ 0.25
20,EHLE,≤ 0.25
21,FFHE,≤ 0.25
22,TWCR,≤ 0.25
23,NHMY,≤ 0.25
24,AAWP,≤ 0.25
25,EEIY,≤ 0.25
26,WYVW,≤ 0.25

row,Variant,enrichment ratio
1,LSFV,5.15
2,HMYP,≤ 0.25
3,WLRD,≤ 0.25
4,IWMW,≤ 0.25
5,KLHK,≤ 0.25
6,PQFQ,≤ 0.25
7,LLMV,≤ 0.25
8,GMYL,≤ 0.25
9,EWPS,≤ 0.25
10,FPTR,≤ 0.25
11,DYTK,≤ 0.25
12,ITDD,≤ 0.25
13,NAYD,≤ 0.25
14,VDES,≤ 0.25
15,IATK,≤ 0.25
16,FRNR,≤ 0.25
17,GFKC,≤ 0.25
18,AAVQ,≤ 0.25
19,LCIF,≤ 0.25
20,RHVT,≤ 0.25
21,MTHN,≤ 0.25
22,DKSD,≤ 0.25
23,EQFR,≤ 0.25
24,NEHM,≤ 0.25
25,WSRY,≤ 0.25
26,TKNA,5.51

row,Variant,enrichment ratio
1,IFII,≤ 0.25
2,NLAN,≤ 0.25
3,HIAI,≤ 0.25
4,QQYM,47.2
5,QDNK,≤ 0.25
6,KEMD,≤ 0.25
7,KTYR,≤ 0.25
8,NCPT,≤ 0.25
9,AMWE,≤ 0.25
10,EQTP,≤ 0.25
11,QNIV,≤ 0.25
12,QFGM,≤ 0.25
13,GKIW,≤ 0.25
14,MILL,7.68
15,KKHP,≤ 0.25
16,QSYN,0.327
17,LFTR,≤ 0.25
18,QPWS,≤ 0.25
19,DLPK,≤ 0.25
20,DRYD,≤ 0.25
21,THIE,≤ 0.25
22,GLVI,1.8
23,VILE,≤ 0.25
24,HWLR,≤ 0.25
25,FTIP,≤ 0.25
26,IYAN,≤ 0.25

row,Variant,enrichment ratio
1,ICEP,1.26
2,EQRD,≤ 0.25
3,RSKG,≤ 0.25
4,MYPQ,≤ 0.25
5,VFDF,≤ 0.25
6,IQVI,≤ 0.25
7,DEST,≤ 0.25
8,GKTA,≤ 0.25
9,DHIG,≤ 0.25
10,NKAH,≤ 0.25
11,GMNI,≤ 0.25
12,FIQM,≤ 0.25
13,VAVM,≤ 0.25
14,EHDP,≤ 0.25
15,MVIP,≤ 0.25
16,YKSM,≤ 0.25
17,LNEK,≤ 0.25
18,YAYG,≤ 0.25
19,NGHC,≤ 0.25
20,RYIY,≤ 0.25
21,KNFA,≤ 0.25
22,KFIY,≤ 0.25
23,QDQM,≤ 0.25
24,MASQ,≤ 0.25
25,WCPD,≤ 0.25
26,RYWC,≤ 0.25

row,Variant,enrichment ratio
1,KNML,≤ 0.25
2,SMMQ,4.3
3,LKPF,≤ 0.25
4,ANHF,≤ 0.25
5,IMFR,≤ 0.25
6,SWQF,≤ 0.25
7,KAPH,≤ 0.25
8,NWCL,≤ 0.25
9,DVQS,≤ 0.25
10,CFVI,≤ 0.25
11,HMHA,≤ 0.25
12,PAIK,≤ 0.25
13,VPYM,≤ 0.25
14,AHFP,≤ 0.25
15,QQGT,≤ 0.25
16,FFQF,≤ 0.25
17,SHDL,≤ 0.25
18,PFWK,≤ 0.25
19,VYWI,≤ 0.25
20,SYLW,≤ 0.25
21,LSFQ,3.77
22,WERD,≤ 0.25
23,EDNA,≤ 0.25

# — a collection of fitness landscapes (doi:10.1126/science.1257360)
